Measurements published in PMC5515408.
The list shows a part of the results. At the low end of the ranking, values are background and their order means little.

Each sequence was assayed on MYC (p64) + MAX (p21), in MYC:MAX (assay: protein-binding microarray (anti-MAX antibody)). Conditions: PBM: 15 mM Tris-HCl pH 7.5, 100 mM KCl, 0.075% NP40, 7.5 mM beta-mercaptoethanol, 375 ng/ul BSA, 8 ng/ul poly(dA-dT):(dA-dT), 550 ng complex, 60 min, room …; high values mean tight binding; double strand, one strand shown; sequences stand for … in CCGGC…TTAATAGCTAAGATTACTATATCGACG.
With TGACCACTGGTA the binding signal (log2 normalized fluorescence) was 0.166. In the case of TGATCCTCCGTA, the binding signal (log2 normalized fluorescence) is reported as 0.0237. For TGAGGACTGGTA, the binding signal (log2 normalized fluorescence) was -0.0575. Work on TGACATTATGTA yielded a binding signal (log2 normalized fluorescence) of 0.289. TGAGTTATCGTA gave a binding signal (log2 normalized fluorescence) of -0.213. Work on TGATCCCACGTA yielded a binding signal (log2 normalized fluorescence) of 0.155. Sequence TGAACAAGTGTA has a binding signal (log2 normalized fluorescence) of 0.224. TGAACGATCGTA gave a binding signal (log2 normalized fluorescence) of 0.151. TGAACGTTTGTA showed a binding signal (log2 normalized fluorescence) of 0.39. TGATGCTTGGTA gave a binding signal (log2 normalized fluorescence) of 0.0812. TGAAACGGTGTA was tested, and the binding signal (log2 normalized fluorescence) was 0.247. With TGAGGTTTAGTA the binding signal (log2 normalized fluorescence) was -0.225. In the case of TGAGAGATGGTA, the binding signal (log2 normalized fluorescence) is reported as -0.0536. Work on AGACAGGTGGGA yielded a binding signal (log2 normalized fluorescence) of 0.489. With TGACATCAAGTA the binding signal (log2 normalized fluorescence) was 0.259. Work on TCAGAGACGTTG yielded a binding signal (log2 normalized fluorescence) of 0.0615. In the case of TGACTCGAGCTA, the binding signal (log2 normalized fluorescence) is reported as 0.329. With TGACTATTTGTA the binding signal (log2 normalized fluorescence) was 0.0119. Sequence TGAGCTTCGGTA has a binding signal (log2 normalized fluorescence) of -0.19. Work on TGATACGGAGTA yielded a binding signal (log2 normalized fluorescence) of -0.134. For TGATTGGTGGTA, the binding signal (log2 normalized fluorescence) was 0.00492. Work on TGAGATCTTGTA yielded a binding signal (log2 normalized fluorescence) of -0.0799. TGAACTTTTGTA gave a binding signal (log2 normalized fluorescence) of -0.0438. TGATGGCATGTA gave a binding signal (log2 normalized fluorescence) of 0.255. AGACGCATGGTA showed a binding signal (log2 normalized fluorescence) of 0.7. With TGAAACTTGGTA the binding signal (log2 normalized fluorescence) was 0.122. In the case of TGACACGTGAAC, the binding signal (log2 normalized fluorescence) is reported as 0.796. With TGAGTGTGTGTA the binding signal (log2 normalized fluorescence) was 0.288. In the case of TGACCGAACGTA, the binding signal (log2 normalized fluorescence) is reported as 0.0701. Sequence TGAAGAAAGGTA has a binding signal (log2 normalized fluorescence) of -0.0249. For TGAGCAATGGTA, the binding signal (log2 normalized fluorescence) was 0.0874. Work on TGAAAAGAAGTA yielded a binding signal (log2 normalized fluorescence) of -0.0867. TGATCTCTCGTA was tested, and the binding signal (log2 normalized fluorescence) was -0.0577. With TGACAGCACGTA the binding signal (log2 normalized fluorescence) was 0.347. In the case of TGAGCATTCGTA, the binding signal (log2 normalized fluorescence) is reported as 0.202. In the case of TGAGTGAGCGTA, the binding signal (log2 normalized fluorescence) is reported as 0.1. For TGTTCCGTGGTA, the binding signal (log2 normalized fluorescence) was 0.0711. For TGACACTCTGTA, the binding signal (log2 normalized fluorescence) was 0.324. Sequence TGAGGCTGGGTA has a binding signal (log2 normalized fluorescence) of -0.084. TGAACCGCCGTA was tested, and the binding signal (log2 normalized fluorescence) was 0.159. TGACTATCTGTA gave a binding signal (log2 normalized fluorescence) of -0.0337. TGACACGTTACA gave a binding signal (log2 normalized fluorescence) of 0.638. Sequence TGACCCGTGATA has a binding signal (log2 normalized fluorescence) of 0.296. Work on TGAGGCAACGTA yielded a binding signal (log2 normalized fluorescence) of 0.158. TGATTCAGAGTA was tested, and the binding signal (log2 normalized fluorescence) was -0.205. TGAGGTACTGTA showed a binding signal (log2 normalized fluorescence) of 0.0886. TGATAGGAGGTA was tested, and the binding signal (log2 normalized fluorescence) was 0.0395. TGATCATTGGTA was tested, and the binding signal (log2 normalized fluorescence) was 0.118. With AGACGCGGGGTA the binding signal (log2 normalized fluorescence) was 0.45. In the case of TGACTTCGAGTA, the binding signal (log2 normalized fluorescence) is reported as 0.00134. Sequence TGAGCGTCGGTA has a binding signal (log2 normalized fluorescence) of 0.0251. In the case of TGACCCAATGTA, the binding signal (log2 normalized fluorescence) is reported as 0.162. With ATCAGGGAATAG the binding signal (log2 normalized fluorescence) was 0.206. Sequence TGAGTTATTGTA has a binding signal (log2 normalized fluorescence) of -0.0326. TGAAATAGAGTA was tested, and the binding signal (log2 normalized fluorescence) was -0.108. Work on TGACCTTGGGTA yielded a binding signal (log2 normalized fluorescence) of -0.061. With TGACTCGACGTA the binding signal (log2 normalized fluorescence) was 0.109. Work on TGAGTATTAGTA yielded a binding signal (log2 normalized fluorescence) of -0.245. TGACGTTCAGTA was tested, and the binding signal (log2 normalized fluorescence) was 0.00286. Sequence TGAATTGTCGTA has a binding signal (log2 normalized fluorescence) of -0.103. TGAATTAACGTA was tested, and the binding signal (log2 normalized fluorescence) was 0.0806. TGACTGGTAGTA gave a binding signal (log2 normalized fluorescence) of 0.0415. TGAGGAAGTGTA showed a binding signal (log2 normalized fluorescence) of 0.0705. TGATCTATCGTA gave a binding signal (log2 normalized fluorescence) of -0.0691. TGACTGGACGTA gave a binding signal (log2 normalized fluorescence) of 0.0994. Work on TGAGCTGTGGTA yielded a binding signal (log2 normalized fluorescence) of 0.023. Work on TGATACAAGGTA yielded a binding signal (log2 normalized fluorescence) of 0.262. In the case of TGTCGCGTCGTA, the binding signal (log2 normalized fluorescence) is reported as 0.0696. TGAGTTACCGTA showed a binding signal (log2 normalized fluorescence) of 0.0965. In the case of TGACAGCGCGTA, the binding signal (log2 normalized fluorescence) is reported as 0.335. Sequence TGAGAAATGGTA has a binding signal (log2 normalized fluorescence) of 0.107. TGAAAGGTTGTA was tested, and the binding signal (log2 normalized fluorescence) was 0.148. TGAGTTAACGTA was tested, and the binding signal (log2 normalized fluorescence) was 0.199. For CCGCCAAAGCAT, the binding signal (log2 normalized fluorescence) was 0.0505. Sequence TGATCACCCGTA has a binding signal (log2 normalized fluorescence) of 0.323.
